The record followed here is ChEMBL document CHEMBL4888484, “Replenishing the malaria drug discovery pipeline: Screening and hit evaluation of the MMV Hit Generation Library 1 (HGL1) against asexual blood stage Plasmodium falciparum ,using a nano luciferase reporter read-out” (2022).

Out of some 150,000 compounds screened, about 540 (0.36%) showed an effect of 50% or more. The list shows a part of the results.

In the experiment the test system is Plasmodium falciparum. Nature of the experiment: Primary screen in NF54 nanoGlo assay, in single point, at 2uM, 72h; a lower Z score goes with more inhibition. The class given is functional, Erythrocyte. The settings on record: timepoint 72 hour.
For `Cc1ncnc(C[C@@H]2COc3ccccc3C2)c1C`, the % Inhibition – broadly, the relative decrease from the control value, in per cent – is reported as -12% and the Z score worked out at 2.09.

Take `COc1ccc(Oc2ccc(-c3noc([C@H]4CC(=O)N(c5ccc(C)cc5)C4)n3)cc2)cc1`: the “% Inhibition” value is on record as -6% and the Z score was 0.69.

In the case of `CC(C)CN1CCN(C(=O)NCc2ccc(Cl)cc2)[C@@H](C)C1=O`, the “% Inhibition” value was 3% and the Z score is -0.31.

Consider `Cc1cccc2c1NC1(CCCC1)[C@@H](C)C2`, for which the “% Inhibition” value is -41% and the Z score stood at 4.82.

Take `COCc1cccc(C(=O)N2CCCC3(CCN(C)CC3)CC2)c1`: the “% Inhibition” value is -13% and the Z score is given as 1.28.

As to `COc1ccc(C2NC(=O)C(c3ccc(OC)cc3)NC2=O)cc1` (stereo unspecified), the “% Inhibition” value worked out at 27% and the Z score is on record as -3.38.

For the compound `COCc1cc(CN(C)C(=O)CCc2scnc2C)n[nH]1`, the “% Inhibition” value was determined as 0% and the Z score is 0.02.

Turning to `OC[C@H]1CCCCN1Cc1ccc(OCc2ccccc2F)nc1`, the “% Inhibition” value was -18% and the Z score worked out at 2.27.

Regarding `CCOc1ccc(CC(=O)N2CCC3(CC2)N(CCOC)C(=O)CS3(=O)=O)cc1`, the “% Inhibition” value is listed as -11% and the Z score turned out to be 1.65.

As to `Cc1nc(CC(=O)NCC2(N3CCOCC3)CCCCC2)cs1`, the “% Inhibition” value is -1% and the Z score is 0.25.

As for `Cc1nc(CCCn2ccnc2)n(-c2ccccc2C(=O)O)n1`, the “% Inhibition” value was -12% and the Z score was found to be 1.85.

With `CC(C)OC1CC(NC(=O)NC2CCC(F)(F)CC2)C1(C)C` (stereo unspecified), the “% Inhibition” value is recorded as -10% and the Z score is listed as 1.45.

For `O=C(NC1CCOC1C1CC1)N1CC(F)C1` (stereo unspecified), the “% Inhibition” value is given as -6% and the Z score stood at 1.25.

`CC1CC1C(=O)NCCc1ccc2[nH]ccc2c1` (stereo unspecified): the “% Inhibition” value is given as -1% and the Z score turned out to be 0.13.

On to `CC(=O)N[C@@H]1COCC[C@@H]1OCC1CCC1`, for which the “% Inhibition” value is given as -5% and the Z score is recorded as 0.99.

`O=C(NCc1ccncc1)[C@H]1CCCN(c2nnc3ccc(C(F)(F)F)cn23)C1`: the “% Inhibition” value was -20% and the Z score amounted to 2.14.

In the case of `CCOC[C@@H](O)CN(C1CC1)C1Cc2ccccc2C1`, the “% Inhibition” value is reported as 1% and the Z score is -0.08.

`CCOc1ccc(CN(CC#N)CC(=O)OC)cc1OC`: the “% Inhibition” value worked out at 6% and the Z score is -1.04.

Consider `Cc1ccc(-n2c(=O)c3cc4c(=O)n(-c5ccc(C)c(C)c5)c(=O)c4c(C(=O)c4ccccc4)c3c2=O)cc1C`, for which the “% Inhibition” value is given as -7% and the Z score was 1.04.

On to `O=C(Nc1ccc2nc3n(c(=O)c2c1)CCCC3)[C@@H]1CCCO1`, for which the “% Inhibition” value is on record as -9% and the Z score is 1.09.

Turning to `CC(C)=CCN1C(=O)[C@@H]2CC[C@H]1CN(C(=O)CCc1ccncc1)C2`, the “% Inhibition” value is -13% and the Z score is given as 1.23.

For the compound `CCN(C(=O)c1coc(COc2ccc3sc(C)nc3c2)n1)C1CCOCC1`, the “% Inhibition” value was -19% and the Z score was 2.39.

`O=C(N[C@@H](Cc1ccccc1)C(=O)Nc1nccs1)C1COc2ccccc2O1` (stereo partly specified): the “% Inhibition” value is -4% and the Z score turned out to be 0.59.

Take `CNC(=O)N[C@H]1CCCCc2sccc21`: the “% Inhibition” value is reported as -17% and the Z score worked out at 3.31.

Consider `CCOC(=O)c1cn(C[C@H]2CCCO2)cn1`, for which the “% Inhibition” value is recorded as -19% and the Z score is reported as 2.16.

Regarding `CC(C)c1n[nH]c2c1CN(C(=O)c1ccc(-c3nccc(N)n3)cc1)CC2`, the “% Inhibition” value is -7% and the Z score turned out to be 1.48.

As for `Cc1ccc(NC2CCOCC2C)cc1C(=O)NC(C)C` (stereo unspecified), the “% Inhibition” value was -5% and the Z score is listed as 0.89.

On to `Cn1cc(Cl)c(C(=O)N2CCC(c3cscn3)CC2)n1`, for which the “% Inhibition” value was -15% and the Z score turned out to be 2.02.

`CC(C)Cc1csc(CN2C(=O)CNC2=O)n1`: the “% Inhibition” value is reported as -21% and the Z score is given as 3.22.

With `C[C@@H](Cn1cncn1)C(=O)NCC1(CO)CCC1`, the “% Inhibition” value came out at 0% and the Z score amounted to 0.

Consider `Cc1ccc2c(Nc3ccc(C)c(C)c3)c(C(=O)N3CCCC3)cnc2n1`, for which the “% Inhibition” value was -6% and the Z score amounted to 0.91.

Consider `CCCc1cnc(C)nc1-c1cccc(C(=O)N2CCS(=O)(=O)CC2)c1`, for which the “% Inhibition” value is on record as -3% and the Z score is recorded as 0.52.

As for `Cc1cc(C)nc(CN(C)C(=O)c2cccc(O)n2)c1`, the “% Inhibition” value is recorded as -7% and the Z score was 1.05.

In the case of `CCCN(Cc1cc(NC(=O)C(C)C)ccc1N(C)C)C(=O)c1ccc(F)cc1`, the “% Inhibition” value was -15% and the Z score was found to be 2.62.

Regarding `CCC[C@H]1CN(c2noc(C3CC3)n2)C[C@@H]1C(=O)O`, the “% Inhibition” value was -8% and the Z score is 1.31.

`O=C(c1scc2c1CCCC2)N1CCOC[C@@H](O)C1`: the “% Inhibition” value is on record as -11% and the Z score stood at 1.68.

Consider `O=C(NC[C@H]1C[C@@H]1c1ccc(Cl)cc1Cl)c1cccc(=O)[nH]1`, for which the “% Inhibition” value is recorded as -4% and the Z score is on record as 0.8.

Consider `Cc1cc(OCc2nc(C)c(C(=O)NC[C@H]3CCCO3)s2)ccc1Cl`, for which the “% Inhibition” value was -3% and the Z score is listed as 0.48.

As to `c1cc(Oc2ccc3nnnn3n2)cc(-c2nnco2)c1`, the “% Inhibition” value is recorded as -14% and the Z score is given as 1.28.

Regarding `CCCS(=O)(=O)N1CC[C@H](Cc2nnc(-c3ccccc3)o2)C1`, the “% Inhibition” value is -2% and the Z score was found to be 0.31.

For `COc1ccc(Cl)cc1N(Cc1ccccc1)Cc1ccccc1`, the “% Inhibition” value is listed as -2% and the Z score is 0.32.

In the case of `O=C(CC1=CCCCC1)N[C@H](c1ccc(F)cc1)c1ncc[nH]1`, the “% Inhibition” value is 1% and the Z score is on record as -0.1.

Turning to `N#Cc1cccc(COc2cccc(CNCC3(O)CCOCC3)c2)c1`, the “% Inhibition” value was -2% and the Z score amounted to 0.34.
